Source: PubChem BioAssay AID1347417 (National Center for Advancing Translational Sciences (NCATS), 2020)
Among all 120,000 compounds or so, about 5,300 (4.4%) were called active. Inconclusive means that the source gave no clear call. Such entries were picked first, then a sample of the others. Calls follow the shape of the dose curve; as a rule, active = well fitted inhibition curve with a large enough effect; inconclusive = small, poorly fitted or top-dose-only effect; inactive = no such curve, though single readings can be large or run the other way. Where the call is inconclusive, the potency comes from a doubtful curve fit.

Test: qHTS Primary assay for Inhibitors of Plasmodium falciparum Dd2 growth in vitro; also: nearly all actives have a fitted effect of over 65% in size
Details: P. falciparum Dd2 growth, SYBR Green, 72 h; series mostly up to 28.9 µM
Outline: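 Infected erythrocytes (Dd2, 0.3% parasitemia, 2.5% hematocrit final) are added to compound in RPMI-1640/Albumax II medium, grown 72 h at 37C in low oxygen, then lysed with saponin/Triton-X containing SYBR Green and read by fluorescence.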
Potency is read from the fitted curve at half-maximal effect; tags tell the direction and shape of the fitted curve.

SMILES	Potency
Cc1ccc(C)c(N(C)S(=O)(=O)c2ccc3[nH]cc(C(=O)NC4CCCC4)c(=O)c3c2)c1	inconclusive: 10 µM [inhibitor, single point]
COCCN1CCC2(CCC1=O)CCN(C(=O)CCn1nc(C)cc1C)CC2	inactive
Cc1cccc(OCC(=O)N2CC(C(=O)NCc3ccncc3)C3(CCOCC3)C2)c1 (configuration not stated)	inactive
Cc1ccc(NC(=O)NC[C@H]2O[C@@H](CC(=O)NCCN(C)C)[C@H](O)[C@@H]2O)cc1	inactive
Cc1nonc1CC(=O)N1CCCC(c2nnc(Cn3cccn3)n2C)C1 (configuration not stated)	inactive
COC(=O)CC1Oc2ccc(Cl)cc2-n2cc(-c3ccc(F)cc3)nc21 (configuration not stated)	inconclusive: 1 µM [inhibitor, full curve, poor fit]
COC(=O)[C@H](NC(=O)[C@@H]1[C@@H](NC(=O)Nc2ccc(F)cc2F)CCN1C(=O)c1cnccn1)C(C)C	inactive
COc1ccc(S(=O)(=O)c2cn(C)c3cc(N4CCOCC4)c(F)cc3c2=O)cc1	inconclusive: 8.91 µM [inhibitor, single point]
CC1(C)[C@H]2CC[C@@H](CNC(=O)c3ccc(Cl)nc3)[C@@H]1C2	inconclusive: 10 µM [inhibitor, partial curve, poor fit]
O=C(c1ccc(F)c(Cl)c1)N1C[C@@H](CO)[C@H](c2ccccn2)C1	inactive
COc1ccc(CNC[C@H]2Cn3c(-c4ccc(Cl)cc4)cnc3CO2)cc1	inconclusive: 8.91 µM [inhibitor, partial curve, poor fit]
C[C@@H](NC(=O)c1cccnc1)c1onc(-c2cccnc2)c1C(=O)O	inactive
CN(C)c1ccc(CNC(=O)c2cccn2-c2nnc(N3CCCCC3)s2)cc1	inconclusive: 1.12 µM [inhibitor, partial curve, poor fit]
COc1ccc(-c2noc(COC(=O)C3=CN(Cc4ccccc4)S(=O)(=O)N=C3C)n2)cc1	inconclusive: 17.8 µM [inhibitor, single point]
Cc1ccc(C)c(NC(=O)CSc2nc(-c3ccccc3Cl)nc3c2Cc2c(CO)cnc(C)c2O3)c1	inactive
CCCCOc1ccc(C(=O)NCCc2csc(-c3ccc(OC)cc3)n2)cc1	inconclusive: 17.8 µM [inhibitor, single point]
O=C1NCc2ccccc2CC12CCN(Cc1ccncc1Cl)C2 (configuration not stated)	inactive
Cc1c(C(=O)OCCOc2ccccc2)[nH]c2c1C(=O)CC(c1ccccc1Cl)C2 (configuration not stated)	inconclusive: 12.6 µM [inhibitor, single point]
C=CCn1cc2c3c(cccc31)[C@H](CC(C)C)N[C@H](C(=O)NCc1ccc(F)cc1)C2	inconclusive: 1.12 µM [inhibitor, full curve, poor fit]
CCC(C(=O)NCCc1cc(OC)ccc1OC)n1nc(C)c2sc3ccccc3c2c1=O (configuration not stated)	inconclusive: 10 µM [inhibitor, single point]
Nc1ccsc1C(=O)N[C@H](Cc1ccncc1)C1CC(O)C1 (some centres not stated)	inactive

SMILES	Potency
C[S+](=O)([O-])N1CC2(Cc3ccccc31)CN(C(=O)C1CC1)C2	inactive
O=C(COCc1cc(-c2cccs2)on1)Nc1cccc(O)c1	inactive
C[C@H]1[C@@H]2[C@@H](O)C([C@H](C)C(=O)NCc3ccco3)CC[C@@]2(C)CC[C@@H]1NC(=O)c1cncnc1 (some centres not stated)	inactive
COc1ccc(S(=O)(=O)N2CCC3(CCC(=O)N(CC4CC4)CC3)CC2)cc1	inconclusive: 17.8 µM [inhibitor, single point]
Cc1cnc(C(=O)N2CCCCCCNC(=O)[C@@H]3C[C@@H](c4nc(-c5cccnc5)no4)C[C@@H]32)cn1	inconclusive: 8.91 µM [inhibitor, single point]
CC(C)CNc1ccc2c(n1)C(C)(C(=O)Nc1cccnc1)CN(Cc1ccccc1)C2 (configuration not stated)	inconclusive: 1.78 µM [inhibitor, partial curve, poor fit]
Cc1noc(C)c1CN1CC2(CCN(C(=O)c3cccc(F)c3)CC2)CC1=O	inactive
COc1ccccc1NC(=O)Cn1c(=O)n(Cc2nc(-c3ccccc3)no2)c(=O)c2ccccc21	inconclusive: 17.8 µM [inhibitor, single point]
COc1ccc(NC(=O)CN2C(=O)C(C)N=C(c3ccccc3F)c3cc(Cl)ccc32)c(OC)c1 (configuration not stated)	inconclusive: 12.6 µM [inhibitor, single point]
Cc1ccc(C)c(NC(=O)Nc2csc3c2CCCC3)c1	inconclusive: 5.01 µM [inhibitor, partial curve, poor fit]
O=C(O)CCC(=O)N1CCC(N(Cc2ccccc2)C2CCOCC2)CC1	inconclusive: 7.08 µM [inhibitor, partial curve]
Fc1ccc(Cc2nc3nccc(-c4ccco4)n3n2)cc1	inconclusive: 10 µM [inhibitor, single point]
CCCNC(=O)C(NC(=O)c1ccc(C)cc1)C1CCN(C(=O)c2ccc(F)cc2)CC1 (configuration not stated)	inactive
COC[C@@H]1[C@H](NC(=O)c2nc(-c3ccccc3)[nH]c2C)[C@@H]2CCO[C@H]12	inactive
Cc1c(CNCCCc2ccccc2)c(C(=O)O)c(C)n1Cc1cccc(Cl)c1	active: 8.91 µM
COc1nc2nc(CCc3ccccc3)n(C)c2cc1-c1ccnn1C	inconclusive: 7.94 µM [inhibitor, partial curve, poor fit]
OC1(c2csc(CN3CCc4ccccc4C3)n2)CCN(CC2CCCCC2)CC1	active: 3.16 µM
COC(=O)[C@@H]1Cc2ncn(Cc3ccc(OC)cc3)c2CN1S(=O)(=O)c1ccc(F)cc1	inconclusive: 0.316 µM [inhibitor, full curve]
COC(=O)c1c(C)sc(-c2c(-c3ccc4c(c3)OCCO4)[nH]c3c2c(=O)[nH]c(=O)n3C)c1O	inconclusive: 17.8 µM [inhibitor, single point]
Cc1ccc(-n2cnc3cc(C(=O)NC4CCCCCC4)ccc32)cc1Cl	inconclusive: 10 µM [inhibitor, single point]
O=C(/C=C/c1cn(CC(O)CN2CCc3ccccc32)c2ccccc12)c1ccc(Br)cc1 (configuration not stated)	inconclusive: 1.41 µM [inhibitor, single point]
